This note sets out measurements from ChEMBL document CHEMBL1156829.

Molecules are shown by their SMILES. Whole data set: some 5,400 compounds, median “IFI” near 2, cut for the highest 2% near 22. This is one part of the list.

A short description of the assay: NOVARTIS: Inhibition Frequency Index (IFI) - the number of HTS assays where a compound showed > 50% inhibition/induction, expressed as a percentage of the number of assays in which the compound was tested. The assay is classed as functional.
Compound `CCCCCCCc1ccc(-c2nnc(-c3ccc([N+](=O)[O-])cc3)o2)cc1` came in with an IFI of 0%. The compound `COc1ccc(CCNc2nc(NCCCN(C)C)ncc2C(=O)NCc2ccccc2)cc1OC` came in with an IFI of 2.86%.

As to `COc1ccc(/C=C\c2nc(=O)c3ccccc3o2)cc1`, the IFI amounted to 0%. Consider `c1ccc2c(c1)[nH]c1ccc3ccncc3c12`, for which the IFI was found to be 2.78%. With `CCOC(=O)C1=C(C)N(c2ccc(N(C)C)cc2)C(C)=C(C(=O)OCC)C1c1ccc(Br)cc1` the figure was 0%. As to `CN(C)c1oc(-c2ccc(Cl)cc2Cl)nc1[P+](c1ccccc1)(c1ccccc1)c1ccccc1`, the IFI was determined as 20.4%. For `COc1cc2nc(NCCCOC(C)C)n3nc(-c4ccccc4)nc3c2cc1OC`, the IFI was found to be 0%. As to `Cc1nc(NC(=N)N)nc2ccccc12`, the IFI is 0.585%. With `CN1[C@@H](C(=O)Nc2ccc3c(c2)OCO3)C[C@@H](c2ccc(F)cc2)NS1(=O)=O` the figure was 0%; with `O=C1CC(c2ccc(O)cc2)C2=C(CC(c3ccccc3Cl)CC2=O)N1` (stereo not given), 0%; with `CNC(=O)c1nn(C)c2c1CC(NCC1CCCCC1)CC2` (stereo not given), 4.88%.

In turn, `Cc1cc(Nc2ccc(C(=O)n3ccnc3)cc2)n2ncnc2n1` registered an IFI of 4.65%. `COc1ccc2cc(CNCCc3cccc(Cl)c3)c(N3CCC(=O)N(CCN(C)C)CC3)nc2c1` showed an IFI of 9.73%. `CNC(=O)[C@@H]1C[C@@H](NCc2ccc(OC)cc2)CN1Cc1ccccc1` registered an IFI of 0%. For the compound `O=C(CSc1oc(-c2ccc(Cl)cc2)nc1[P+](c1ccccc1)(c1ccccc1)c1ccccc1)c1ccccc1`, the IFI turned out to be 21.4%. `COc1ccc(CCNc2nc(NCCCN3CCCCC3C)ncc2C(=O)NCc2ccccc2)cc1OC` (stereo not given) gave an IFI of 3.81%.

As for `Cc1nc2ccc(Cl)cc2c(O)c1I`, the IFI turned out to be 0.752%. For the compound `CC(C)CC1=Nc2cc(C(=O)NC(C)C)ccc2CN1Cc1ccccc1`, the IFI was found to be 3.8%.

For the compound `C=CCNC(=O)c1cc2c(=O)n3cccc(C)c3nc2n(CCc2ccccc2)c1=N`, the IFI was found to be 5.88%.

The compound `C=CCSC1=NC2(CC(c3ccccc3)c3cc(Cl)c(O)cc3O2)CC(C)(C)N1` (stereo not given) displayed an IFI of 0%.

For the compound `CCC(C)Nc1nc(NC(C)CC)nc(N2CCCCCC2)n1` (stereo not given), the IFI was found to be 0%. For the compound `COc1ccc(/C=C2\SC(=Nc3ccccc3OC)NC2=O)cc1`, the IFI turned out to be 7.69%. As for `O=C(NC1CCCCC1)c1noc2c1CCCCC2`, the figure is 11.4%; as for `Cc1ccc(C2=NC(C(F)(F)F)(C(F)(F)F)N=C3C=CC(Cl)=CN32)cc1`, 0%. In turn, `CCN1C(=S)NC2c3cc(C)ccc3OC13CCCC23` (stereo not given) returned an IFI of 0%.

`CCCn1c(=N)c(C(=O)NC2CCCCC2)cc2c(=O)n3cccc(C)c3nc21`: the IFI was found to be 8.33%. `O=C(CN1C(=O)C2C3CCC(C3)C2C1=O)N1CCCC(c2ncncc2-c2ccncc2)C1` (stereo not given) yielded an IFI of 0%.

As for `CCOc1ccc(C2N(C)c3ccccc3N2C)cc1`, the IFI amounted to 2.74%. The compound `NCCC(=O)N1CC(c2ccccc2)c2ccccc2C1CN1CCCCC1` (stereo not given) displayed an IFI of 4.22%. `O=S(=O)(NCCCCNc1ccnc2cc(Cl)ccc12)c1ccc2ccccc2c1`: the IFI was 1.89%. As for `CCN(CC)CCNc1ccc(Nc2ccnc3cc4ccccc4cc23)cc1`, the IFI came out at 17.2%. As for `Oc1c(CN2CCCCC2)ccc2ccccc12`, the figure is 0%; as for `CC(C)CNc1nc(NCCCN2CCCC2)ncc1C(=O)NCCc1ccccc1`, 1.91%; as for `COc1cc(C(c2c(C)n(C)n(-c3ccccc3)c2=O)c2c(C)n(C)n(-c3ccccc3)c2=O)cc(Cl)c1OCc1ccccc1`, 0%. `CCOc1ccc(Nc2ccnc3cc(Cl)ccc23)cc1`: the IFI was 5.17%. In the case of `COCCNC(=O)c1ccc2c(=O)n(Cc3ccc4c(c3)OCO4)c(=S)[nH]c2c1`, the IFI stood at 0%. For the compound `COc1ccc(-c2cc(C3CCN(c4nc(N)c5cc(OC)c(OC)cc5n4)CC3)n[nH]2)cc1OC`, the IFI stood at 7.41%. In the case of `O=C(c1ccc([N+](=O)[O-])cc1)c1ccc(N2CCOCC2)c([N+](=O)[O-])c1`, the IFI was found to be 0%. With `CC(=O)Nc1ccc(C(=O)N2CCC(Oc3cccc(CN(C)Cc4cccc5ccccc45)c3)CC2)cc1` the figure was 2.94%; with `CC[n+]1c(/C=C/C=C2\N(C)c3ccccc3C2(C)C)n(-c2ccccc2)c2cc(Cl)ccc21`, 33.3%; with `CCOC(=O)c1c(Cl)nnc(-c2ccccc2)c1-c1ccccc1`, 0%. As for `CCCCNCCOCCOc1ccc(Br)cc1`, the figure is 0%; as for `Cc1cccc2cc(CNC34CC5CC(CC(C5)C3)C4)c(N3CCC(N4CCC(O)CC4)CC3)nc12`, 2.91%; as for `Cc1cc2cc3c(cc2c(C)n1)c1ccccc1n3C`, 15.4%.

The compound `CCC(Sc1nnc(-c2ccc(C)cc2)c(-c2ccc(C)cc2)n1)C(=O)NCCOC` (stereo not given) gave an IFI of 0%. As for `CCN1CC=C2C(C#N)=C(N)C(C#N)(C#N)C(c3ccc(C)s3)C2C1` (stereo not given), the IFI is 0%.

As for `COc1cc2nc(NCC3CCCO3)n3nc(-c4ccccc4)nc3c2cc1OC` (stereo not given), the IFI stood at 2.27%. `COc1ccc(-c2cc(C(=O)NCc3cccnc3)no2)cc1OC`: the IFI is 0%. With `CCN1/C(=C/C=C/c2oc3ccc(-c4ccccc4)cc3[n+]2CC)Oc2ccc(-c3ccccc3)cc21` the figure was 15.4%.

In the case of `O=[N+]([O-])c1cc(C(F)(F)F)cc([N+](=O)[O-])c1Sc1cccc2cccnc12`, the IFI turned out to be 14.3%. As to `COc1ccc(C2CC3=NC(C)=C(C(=O)OC(C)C)C(c4ccccc4OC)C3=C(O)C2)cc1OC` (stereo not given), the IFI came to 3.49%. As to `Oc1ccccc1CN1CCN(C(c2ccccc2)c2ccccc2)CC1`, the IFI was 1.82%. Regarding `CC(C)CN1C(=O)c2ccccc2C(C(=O)Nc2ccc(C(C)C)cc2)C1c1cccs1` (stereo not given), the IFI was 6.06%. For `O=C(CC1N=C2c3ccccc3N=C(SCc3cccc(F)c3)N2C1=O)NCc1cccs1` (stereo not given), the IFI came out at 14.3%. The compound `Cc1cc(N2CCN(Cc3ccccc3)CC2)n2c(nc3ccccc32)c1C#N` showed an IFI of 4.62%. The compound `CCOc1cccc2oc(=O)c(C(=O)Nc3cc(C(C)(C)C)on3)cc12` displayed an IFI of 0%.

As to `COc1ccc2[nH]c3c(NCCN4CCCCC4)ncnc3c2c1`, the IFI was 9.76%. `CCCN(CC1CC1)C(=O)C1CCCN(c2cccc3c2C(=O)N(Cc2cc(OC)c(OC)c(OC)c2)C3=O)C1` (stereo not given) yielded an IFI of 5.46%.

In turn, `COc1cc(C2CC(=O)NC3=C2C(=O)CC(c2ccccc2Cl)C3)ccc1O` (stereo not given) gave an IFI of 0%. The compound `O=C1c2ccccc2-c2nnc(-c3ccc(Br)cc3)cc21` yielded an IFI of 5.88%.

`O=C(c1ccccc1)N1CCN(c2ccccc2NC(=O)C(Cl)(Cl)Cl)CC1` had an IFI of 0%. Turning to `CCCCc1c(C)nc2ccc(Br)cc2c1O`, the IFI turned out to be 0%.

Compound `Cc1nc2ccccc2c(O)c1CC=C(Cl)Cl` registered an IFI of 1.96%.

The compound `O=C(NCc1ccccc1)c1cnc(NCCCn2ccnc2)nc1Nc1ccccc1` came in with an IFI of 0.971%. The compound `Cc1cc(Nc2ccc(Cl)c(Cl)c2)n2ncnc2n1` yielded an IFI of 0%.
